Results taken from patent US20120121591A1 (priority 2009, published 2012).

Tested on: experimental autoimmune encephalomyelitis
Type: in vivo, rat
Settings: AT-EAE

## Monovalent aKLH HC-ShK(1-35 Q16K) Ab: anti-KLH IgG2 antibody with [Lys16]ShK fused to the C-terminus of one heavy chain
  Effect on disease onset and severity: delayed disease onset and caused dose-dependent reduction in disease severity
